Reference: PubChem BioAssay (NCI)
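Test compounds were applied to cells in 96-well plates for 48 hours at 5 doses. GI50: concentration for 50% inhibition of growth.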 Not every entry of the source has a single result; some have several. This list holds those alone. An entry can have further records. For part of these data: Records of one sample usually come from different ranges of test concentrations, which the source does not state; a value can be the end of its range. A tag in brackets gives the origin of a value. Letters hold for one entry only.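 At the TGI there is no net growth.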 For part of these data: The values listed for one entry are repeated measurements across runs, samples, wells, individuals or studies.

Experiments:
Assay in all cases: DTP human tumour cell line panel, 48 h
SN12K1 renal = test system: SN12K1 renal
SK-MEL-28 melanoma = test system: SK-MEL-28 melanoma
MDA-MB-231 breast = test system: MDA-MB-231 breast
HOP-92 NSCLC = test system: HOP-92 NSCLC
K-562 leukemia = test system: K-562 leukemia
SK-MEL-2 melanoma = test system: SK-MEL-2 melanoma
HCT-116 colon = test system: HCT-116 colon
SW-620 colon = test system: SW-620 colon
NCI-H23 lung = test system: NCI-H23 lung
HOP-62 NSCLC = test system: HOP-62 NSCLC
MALME-3M melanoma = test system: MALME-3M melanoma
CCRF-CEM leukemia = test system: CCRF-CEM leukemia
SN12C renal = test system: SN12C renal
SR leukemia = test system: SR leukemia
COLO 205 colon = test system: COLO 205 colon
NCI/ADR-RES ovarian = test system: NCI/ADR-RES ovarian
HCC-2998 colon = test system: HCC-2998 colon
M14 melanoma = test system: M14 melanoma
ACHN renal = test system: ACHN renal
MOLT-4 leukemia = test system: MOLT-4 leukemia
UACC-62 melanoma = test system: UACC-62 melanoma
RPMI-8226 leukemia = test system: RPMI-8226 leukemia
SNB-19 CNS = test system: SNB-19 CNS
CAKI-1 renal = test system: CAKI-1 renal
LOX IMVI melanoma = test system: LOX IMVI melanoma

SMILES: Nc1ncn(C2OC(CO)C(O)C2O)c(=O)n1 (stereo not drawn)
- TGI (SN12K1 renal): > 250 µM [sample A, mean of 9 tests] and 7.01 µM [sample B, mean of 4 tests]
- TGI (SK-MEL-28 melanoma): > 250 µM [sample A, mean of 15 tests] and 11.4 µM [sample B, mean of 10 tests] and 16.3 µM [sample B, mean of 3 tests] and 14.8 µM [sample B, mean of 6 tests]
- TGI (MDA-MB-231 breast): > 250 µM [sample A, mean of 4 tests] and 9.58 µM [sample B, mean of 3 tests] and 4.49 µM, 2.11 µM [sample B, mean of 4 tests]
- TGI (HOP-92 NSCLC): > 99.5 µM [sample A, mean of 10 tests] and 7.3 µM [sample B, mean of 3 tests] and 19.1 µM [sample B, mean of 5 tests] and 11.2 µM [sample B, mean of 7 tests]
- GI50 (K-562 leukemia): 165 µM [sample A, mean of 13 tests] and 559 nM [sample B, mean of 10 tests] and 426 nM [sample B, mean of 3 tests] and 669 nM [sample B, mean of 5 tests]
- TGI (K-562 leukemia): > 209 µM [sample A, mean of 13 tests] and 17.2 µM [sample B, mean of 10 tests] and > 52.9 µM [sample B, mean of 3 tests] and 64.7 µM [sample B, mean of 5 tests]
- GI50 (SK-MEL-2 melanoma): 112 µM [sample A, mean of 10 tests] and 493 nM [sample B, mean of 3 tests] and 250 nM [sample B, mean of 6 tests] and 444 nM [sample B, mean of 9 tests]
- TGI (SK-MEL-2 melanoma): > 246 µM [sample A, mean of 10 tests] and 2.71 µM [sample B, mean of 3 tests] and 1.44 µM [sample B, mean of 6 tests] and 1.32 µM [sample B, mean of 9 tests]
- GI50 (HCT-116 colon): 18.1 µM [sample A, 1 test] and 19 µM [sample A, mean of 15 tests] and 459 nM [sample B, 1 test] and 242 nM, 544 nM [sample B, mean of 4 tests]
- TGI (HCT-116 colon): > 250 µM [sample A, mean of 15 tests] and 1.98 µM, 1.83 µM [sample B, mean of 4 tests]
- TGI (SW-620 colon): > 250 µM [sample A, mean of 14 tests] and 54.2 µM [sample B, mean of 3 tests] and 28.6 µM [sample B, mean of 6 tests] and > 53.3 µM [sample B, mean of 9 tests]
- TGI (NCI-H23 lung): > 191 µM [sample A, mean of 13 tests] and 25.8 µM [sample B, mean of 3 tests] and 22.9 µM [sample B, mean of 6 tests] and 36 µM [sample B, mean of 8 tests]
- TGI (HOP-62 NSCLC): 128 µM [sample A, mean of 12 tests] and 8.99 µM [sample B, mean of 3 tests] and 3.44 µM [sample B, mean of 6 tests] and 2.09 µM [sample B, mean of 7 tests]
- TGI (MALME-3M melanoma): 173 µM [sample A, mean of 14 tests] and 8.9 µM [sample B, mean of 3 tests] and 14.3 µM [sample B, mean of 6 tests] and 6.07 µM [sample B, mean of 9 tests]
- GI50 (CCRF-CEM leukemia): 285 nM [sample A, 1 test] and 238 nM [sample A, mean of 15 tests] and 1.19 µM [sample B, mean of 3 tests] and 1.18 µM [sample B, mean of 5 tests] and 1.16 µM [sample B, mean of 6 tests]
- TGI (CCRF-CEM leukemia): 33.3 µM [sample A, mean of 15 tests] and > 71.2 µM [sample B, mean of 3 tests] and 69.3 µM [sample B, mean of 5 tests] and 33 µM [sample B, mean of 6 tests]
- TGI (SN12C renal): > 250 µM [sample A, mean of 12 tests] and 20.9 µM [sample B, mean of 3 tests] and 43.4 µM [sample B, mean of 5 tests] and 10.9 µM [sample B, mean of 8 tests]
- TGI (SR leukemia): > 250 µM [sample A, mean of 2 tests] and 3.13 µM [sample B, mean of 2 tests] and 16.9 µM [sample B, mean of 3 tests] and 30.5 µM [sample B, mean of 4 tests]
- TGI (COLO 205 colon): > 250 µM [sample A, mean of 13 tests] and 6.51 µM [sample B, mean of 2 tests] and 4.97 µM [sample B, mean of 4 tests] and 2.07 µM [sample B, mean of 8 tests]
- TGI (NCI/ADR-RES ovarian): > 212 µM [sample A, mean of 14 tests] and 20.1 µM [sample B, mean of 10 tests] and 15.6 µM [sample B, mean of 3 tests] and 57.3 µM [sample B, mean of 6 tests]
- GI50 (HCC-2998 colon): 212 µM [sample A, mean of 8 tests] and 1.4 µM [sample B, mean of 3 tests] and 417 nM [sample B, mean of 6 tests] and 511 nM [sample B, mean of 7 tests]
- TGI (HCC-2998 colon): > 250 µM [sample A, mean of 8 tests] and 6.97 µM [sample B, mean of 3 tests] and 2.26 µM [sample B, mean of 6 tests] and 2.5 µM [sample B, mean of 7 tests]
- TGI (M14 melanoma): > 250 µM [sample A, mean of 4 tests] and 6.95 µM [sample B, mean of 3 tests] and 3.4 µM [sample B, mean of 4 tests] and 5.98 µM [sample B, mean of 6 tests]
- TGI (ACHN renal): 225 µM [sample A, mean of 4 tests] and 16 µM [sample B, mean of 3 tests] and 3.85 µM [sample B, mean of 4 tests] and 8.56 µM [sample B, mean of 6 tests]
- TGI (MOLT-4 leukemia): 51.2 µM [sample A] and 12.2 µM, 28.3 µM, 5.8 µM [sample B]
- TGI (UACC-62 melanoma): > 250 µM [sample A, mean of 14 tests] and 4.63 µM [sample B, mean of 10 tests] and 4.31 µM [sample B, mean of 3 tests] and 4.38 µM [sample B, mean of 5 tests]
- GI50 (RPMI-8226 leukemia): > 236 µM [sample A, mean of 12 tests] and 364 nM [sample B, mean of 3 tests] and 326 nM [sample B, mean of 5 tests] and 380 nM [sample B, mean of 8 tests]
- TGI (RPMI-8226 leukemia): > 250 µM [sample A, mean of 12 tests] and 6.52 µM [sample B, mean of 3 tests] and 18.8 µM [sample B, mean of 5 tests] and 2.69 µM [sample B, mean of 8 tests]
- TGI (SNB-19 CNS): > 250 µM [sample A, mean of 15 tests] and 64.7 µM [sample B, mean of 3 tests] and 55.7 µM [sample B, mean of 6 tests] and 62.6 µM [sample B, mean of 7 tests]
- GI50 (CAKI-1 renal): 14.4 µM [sample A, 1 test] and 55.6 µM [sample A, mean of 12 tests] and 385 nM [sample B, mean of 3 tests] and 271 nM, 570 nM [sample B, mean of 6 tests]
- TGI (CAKI-1 renal): > 206 µM [sample A, mean of 12 tests] and 5.43 µM [sample B, mean of 3 tests] and 3.67 µM, 2.31 µM [sample B, mean of 6 tests]
- GI50 (LOX IMVI melanoma): 56.6 µM [sample A, 1 test] and 17.6 µM [sample A, mean of 13 tests] and 373 nM [sample B, mean of 3 tests] and 329 nM [sample B, mean of 6 tests] and 492 nM [sample B, mean of 9 tests]
- TGI (LOX IMVI melanoma): > 206 µM [sample A, mean of 13 tests] and 1.89 µM [sample B, mean of 3 tests] and 2.23 µM [sample B, mean of 6 tests] and 2.41 µM [sample B, mean of 9 tests]
